Test results published in the antibiotic and cytotoxicity screens of Wong et al. (2023).
The list shows a part of the results.

tested on: S. aureus RN4220; assay: growth inhibition call (relative growth <= 0.2); details: 50 µM

Growth inhibition call, inactive:
O=C(C[C@H]1C=C[C@@H](NC(=O)CN2CCOCC2)[C@@H](CO)O1)NCCc1ccccc1
C[C@@H]1CN([C@H](C)CO)C(=O)c2cccc(NC(=O)C3CCOCC3)c2O[C@@H]1CN(C)S(=O)(=O)c1ccccc1
C[C@@H]1CN([C@@H](C)CO)C(=O)c2cc(NC(=O)CCN3CCOCC3)ccc2O[C@@H]1CN(C)S(=O)(=O)c1ccccc1
O=C1N[C@H](Cc2c[nH]c3ccccc23)COC(=O)[C@H](Cc2ccc(F)cc2)CC=CC[C@@H]1CC(=O)N(CCO)Cc1ccccc1
C[C@H]1CN([C@@H](C)CO)C(=O)c2cccc(NS(=O)(=O)c3ccc(Cl)cc3)c2O[C@@H]1CN(C)Cc1ccc(C(F)(F)F)cc1
Cc1ccc(S[C@]2(C(=O)NC(C)C)CC(=O)N(Cc3ccccc3Cl)[C@@H]2c2ccc(CO)cc2)cc1
CO[C@H]1CN(C)C(=O)c2cc(NS(=O)(=O)c3cn(C)cn3)ccc2OC[C@@H](C)N(CC2CC2)C[C@@H]1C
C[C@H]1CN([C@@H](C)CO)C(=O)Cc2cc(NS(=O)(=O)c3cccs3)ccc2O[C@@H]1CN(C)Cc1ccc(Oc2ccccc2)cc1
CCOc1nc2cccc(C(=O)OCc3oc(=O)oc3C)c2n1Cc1ccc(-c2ccccc2-c2noc([O-])n2)cc1.[K+]
C[C@@H]1CCCCO[C@H](CN(C)C(=O)NC2CCCCC2)[C@@H](C)CN([C@H](C)CO)C(=O)c2cc(NC(=O)c3ccccc3)ccc2O1
COc1ccc(NC(=O)Nc2ccc3c(c2)C(=O)N([C@@H](C)CO)C[C@H](C)[C@H](CN(C)Cc2ccc4c(c2)OCO4)OCCCC[C@@H](C)O3)cc1
C[C@@H]1CCCCO[C@@H](CN(C)C(=O)c2ccccc2)[C@H](C)CN([C@@H](C)CO)C(=O)c2cc(NS(=O)(=O)c3ccccc3)ccc2O1
C[C@H](CO)N1C[C@H](C)[C@@H](CN(C)C(=O)c2ccccn2)Oc2cc(C#Cc3ccccc3)ccc2S1(=O)=O
COc1ccc(NC(=O)N(C)C[C@@H]2OCCCC[C@H](C)Oc3ccc(NS(=O)(=O)c4ccc(OC)cc4)cc3C(=O)N([C@H](C)CO)C[C@@H]2C)cc1
Cn1c(=O)cc(N2CCC[C@@H](N)C2)n(Cc2cc(F)ccc2C#N)c1=O
C[C@@H]1CCCCO[C@H](CN(C)C(=O)Nc2cccc3ccccc23)[C@@H](C)CN([C@H](C)CO)C(=O)c2cc(NC(=O)CCC(F)(F)F)ccc2O1
C[C@@H]1CN([C@@H](C)CO)C(=O)Cc2cc(NS(=O)(=O)c3cccs3)ccc2O[C@H]1CN(C)Cc1ccncc1
Cc1noc(C)c1NC(=O)N(C)C[C@@H]1Oc2cc(C#CCN(C)C)ccc2S(=O)(=O)N([C@@H](C)CO)C[C@H]1C
C[C@H](CO)N1C[C@H](C)[C@H](CN(C)Cc2ccc(C(F)(F)F)cc2)Oc2c(NC(=O)C3CCCCC3)cccc2C1=O
C[C@H](O)C#Cc1ccc2c(c1)O[C@@H](CN(C)C(=O)C1CCCCC1)[C@@H](C)CN([C@H](C)CO)S2(=O)=O
CC(C)NC(=O)Cn1ccc([N+](=O)[O-])n1
CC(C)NC(=O)Nc1cccc2c1O[C@@H](CN(C)Cc1ccc(Oc3ccccc3)cc1)[C@@H](C)CN([C@@H](C)CO)C2=O
COc1ccc(S(=O)(=O)Nc2ccc3c(c2)C(=O)N([C@H](C)CO)C[C@H](C)[C@H](CN(C)C(=O)CCC(F)(F)F)OCCCC[C@@H](C)O3)cc1
C[C@@H]1CCCCO[C@H](CN(C)Cc2ccccc2)[C@@H](C)CN([C@H](C)CO)C(=O)c2cc(NS(=O)(=O)c3ccc(F)cc3)ccc2O1
Cc1ccc(S(=O)(=O)Nc2ccc3c(c2)CC(=O)N([C@@H](C)CO)C[C@@H](C)[C@H](CN(C)S(=O)(=O)c2ccc(F)cc2)O3)cc1
COc1ccc([Si](C)(C)[C@H]2[C@H](CC(=O)N(CCO)Cc3ccccc3)O[C@@]3(C(=O)N(Cc4ccc(N5CCC5=O)cc4)c4ccccc43)[C@@H]2C)cc1
Cc1noc(C)c1S(=O)(=O)Nc1cccc2c1O[C@H](CN(C)C(=O)NC1CCCCC1)[C@H](C)CN([C@H](C)CO)C2=O
Cc1noc(C)c1S(=O)(=O)Nc1ccc2c(c1)CC(=O)N([C@@H](C)CO)C[C@H](C)[C@H](CN(C)C(=O)NC(C)C)O2
COc1ccc(C#Cc2ccc3c(c2)O[C@@H](CN(C)C(=O)c2ccccn2)[C@H](C)CN([C@@H](C)CO)S3(=O)=O)cc1
